Source: PubChem BioAssay AID686979 (National Center for Advancing Translational Sciences (NCATS), 2013)
Values joined by “and” are separate entries in the source; they are usually repeats but may differ in a detail not shown here. Identical values can stand only once. The campaign covered roughly 420,000 compounds. About 50,000 (12%) were called active. Inconclusive means that the source gave no clear call. Such entries were picked first, then a sample of the others. The call rests on the fitted dose curve; in most records, active means well fitted inhibition curve with a large enough effect; inconclusive means small, poorly fitted or top-dose-only effect; inactive means flat fitted curve, though single readings scatter. A potency beside an inconclusive call is a rough fit, not a confirmed value.

experiment: qHTS for Inhibitors of human tyrosyl-DNA phosphodiesterase 1 (TDP1): qHTS in cells in presence of CPT; conditions: chicken DT40 Tdp1-/-;hTDP1 cells + 20 nM CPT, ATP luminescence, 48 h; activity change, negative = growth inhibition: at 46.2 µM (top of the series); further: nearly all actives have a fitted effect of over 55% in size
Outline: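 Chicken DT40 Tdp1-/- cells complemented with human TDP1, 400 cells/well, exposed to compounds plus 20 nM camptothecin for at least 48 h at 37 C; viability read as ATP content by CellTiter-Glo luminescence.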
On the % scale 0 is the no-effect control and ±100 the full control effect; potency means the concentration at half of the fitted maximal effect; tags describe the fitted curve by direction and shape.

Row | Compound | Potency | activity change, negative = growth inhibition
1 | Cc1nn(-c2ccc(F)cc2)c(Cl)c1C(=O)N(C)CC(=O)Nc1cccc(F)c1 | inconclusive: 20.6 µM [inhibitor, partial curve, poor fit] | 
2 | CC(Sc1nc2c([nH]c3ccccc32)c(=O)n1-c1ccccc1)c1ccccc1 (stereo not drawn) | inconclusive: 29.1 µM [inhibitor, single point] | 
3 | Cc1cnc(CNc2ncnc3ccc(-c4cccc(C#N)c4)cc23)cn1 | inconclusive: 7.31 µM [inhibitor, partial curve, poor fit] | 
4 | CCCn1c(=O)c2c(nc3n2CC(C)CN3Cc2ccccc2)n(C)c1=O (stereo not drawn) | inconclusive: 20.6 µM [inhibitor, single point] | 
5 | N/C(COc1ncn(-c2ccccc2)n1)=N\S(=O)(=O)c1ccc(Cl)cc1Cl | inconclusive: 29.1 µM [inhibitor, single point] | 
6 | O=C(NCc1ccco1)C1CCCN1S(=O)(=O)c1ccc2ccccc2c1 (stereo not drawn) |  | inconclusive: -35.9% [inhibitor]
7 | COc1ccc(/C=N/NC(=O)c2c(-c3ccccc3)noc2C)cc1[N+](=O)[O-] | inconclusive: 23.1 µM [inhibitor, single point] | 
8 | CCOC(=O)c1cnc2c(Cl)cc(Cl)cc2c1NCCOCCO | inconclusive: 16.4 µM [inhibitor, partial curve, poor fit] | 
9 | COC(=O)c1sccc1NC(=O)Nc1ccc(Cl)c(Cl)c1 | inconclusive: 25.9 µM [inhibitor, single point] | 
10 | Cc1ccc(Sc2ccc(NC(=O)c3ccc(S(C)(=O)=O)cc3Cl)cc2)cc1 | inconclusive: 6.51 µM [inhibitor, single point] | 
11 | Cc1ccc(C(=O)N[C@@H](Cc2ccccc2)C(=O)N2CCC3(CC2)NCCc2[nH]cnc23)cc1C | inconclusive: 29.1 µM [inhibitor, single point] | 
12 | CCOc1ccc(Cl)cc1/C=C1/C(=O)ON=C1C | inconclusive: 18.4 µM [inhibitor, single point] | 
13 | NSc1nc(N)c2nc(-c3ccccc3)c(-c3ccccc3)nc2n1 | inconclusive: 29.1 µM [inhibitor, single point] | 
14 | CCN(CC)c1ccc(NC(=S)NC(=O)C2CCC2)cc1 | inconclusive: 29.1 µM [inhibitor, single point] | 
15 | Cc1ccc(NC(=O)c2ccc(-c3cc(Cl)ccc3Cl)o2)c(C)c1 | active: 20.6 µM | 
16 | COc1ccc(OCC(=O)NNC(=O)C(=O)N2CCCC2)cc1 | inactive | 
17 | CCCOc1ccc(CCc2n[nH]c(=S)n2Cc2ccccc2)cc1 | inconclusive: 29.1 µM [inhibitor, single point] | 
18 | CCC(=O)CCC(=O)c1ccc2ccccc2c1 | inactive | 
19 | COc1cccc(OC)c1C(=O)Nc1c(C(=O)N2CCN(C)CC2)oc2ccccc12 | inactive | 
20 | O=C(c1ccco1)N1CCCC(c2nc(-c3ccc(S(=O)(=O)NCc4ccccc4)cc3)no2)C1 (stereo not drawn) | active: 13 µM | 
21 | Cn1c(=O)cc(OCCCC(=O)NCc2ccc3c(c2)OCO3)c2ccccc21 | inconclusive: 32.6 µM [inhibitor, single point] | 
22 | CC(C)(C)NC(=O)C(c1ccncc1)N(C(=O)Cn1nnc(-c2ccc(F)cc2)n1)c1ccc(F)cc1 (stereo not drawn) | inactive | 
23 | CN(C)CC(=O)c1ccc(-c2ccccc2)cc1 | inactive | 

Row | Compound | Potency | activity change, negative = growth inhibition
24 | Cc1cccc(S(=O)(=O)N2CN(CC3CCCO3)c3nc4ccccc4nc32)c1 (stereo not drawn) | inconclusive: 29.1 µM [inhibitor, single point] | 
25 | O=S(=O)(Nc1ccccc1-c1ccccc1)c1ccccc1 | inconclusive: 29.1 µM [inhibitor, single point] | 
26 | COc1ccc(OC)c(NC(=O)CN2CCC(NC(=O)c3ccccc3C)CC2)c1 | inconclusive: 11.6 µM [inhibitor, partial curve] | 
27 | O=C(c1cccc(F)c1)N1CCC2(CC1)CCN(c1ccccn1)CC2 | inconclusive: 29.1 µM [inhibitor, single point] | 
28 | CCOC(=O)C1CCN(C/C=C/c2ccccc2[N+](=O)[O-])CC1 | inactive | 
29 | COc1ccc(OCc2cc(C(=O)N(C)Cc3cc(C4CC4)n[nH]3)no2)c(Cl)c1 | inconclusive: 20.6 µM [inhibitor, single point] | 
30 | O=C1NC(=Nc2ccc(F)cc2)CS1 | inactive | 
31 | O=C(NCCNC1CCC(c2ccccc2)CC1)c1ccc(F)cc1 (stereo not drawn) | inconclusive: 23.1 µM [inhibitor, single point] | 
32 | O=C(NC1CC(=O)N(c2ccc3c(c2)OCCO3)C1)N1CCC(O)CC1 (stereo not drawn) | inactive | 
33 | Cc1c(CN2CCC(CO)(Cc3ccccc3)CC2)c2ccccc2n1C | inconclusive: 25.9 µM [inhibitor, single point] | 
34 | O=C(N/N=C/c1ccc(OC(=O)c2ccccc2)cc1)c1ccc(CN2CCOCC2)cc1 | inconclusive: 20.6 µM [inhibitor, single point] | 
35 | Cc1nc2ccc(NC(=O)c3ccc(Cl)s3)cc2s1 |  | inconclusive: -33.6% [inhibitor]
36 | CCOc1ccc(/C=C2\CCC(C3CCCC3)C2=O)cc1 (stereo not drawn) | inactive | 
37 | COCCn1c(=O)c(-c2ccc(Cl)cc2)nc2cnc(Oc3ccc(OC)cc3)nc21 | inconclusive: 29.1 µM [inhibitor, single point] | 
38 | CC1C(c2ccccc2)=NNc2nc3c(c(=O)n(C)c(=O)n3C)n21 (stereo not drawn) | inconclusive: 29.1 µM [inhibitor, single point] | 
39 | CCN(CC)S(=O)(=O)c1ccc(Cl)c(C(=O)OCC(=O)c2c(N)n(C)c(=O)n(C)c2=O)c1 | inconclusive: 18.4 µM [inhibitor, single point] | 
40 | Cc1ccc(Cl)cc1NC(=O)CSc1nnc(C)n1-c1ccccc1 | inactive | 
41 | COc1ccc(CCNC(=O)c2ccc3nc4cc(Cl)ccc4c(=O)n3c2)cc1OC | inconclusive: 29.1 µM [inhibitor, single point] | 
42 | CCc1ccc(NC(=O)CS(=O)CC(=O)Nc2ccc(N3CCOCC3)cc2)cc1 (stereo not drawn) | inactive | 
43 | CCOC(=O)c1sc(N/N=C/c2cc(Br)c(O)c(OC)c2)nc1C | inconclusive: 23.1 µM [inhibitor, single point] | 
44 | COc1ccc(C)cc1Nc1n[n+](-c2ccccc2)c(-c2ccc(OC)c(OC)c2OC)s1 | active: 16.4 µM | 
45 | O=C(CC1C(=O)NCCN1C/C=C/c1ccccc1)NCCCC1CCCC1 (stereo not drawn) | inconclusive: 10.3 µM [inhibitor, partial curve, poor fit] | 
46 | C=CCN1C=C2C(=O)C(C)(OC(=O)c3cnc4ccccc4n3)C(=O)C=C2C=C1/C=C/COC (stereo not drawn) | inconclusive: 16.4 µM [inhibitor, single point] | 

Row | Compound | Potency | activity change, negative = growth inhibition
47 | Cc1ccc(C(=O)Nc2cccc(NC(=O)c3ccc(C)c([N+](=O)[O-])c3)n2)cc1[N+](=O)[O-] | inconclusive: 20.6 µM [inhibitor, partial curve] | 
48 | CC1CCN(CCOCCOc2ccc(Cl)cc2Br)CC1 | active: 13 µM | 
49 | O=C(N/N=C\C=C\c1ccco1)C1COc2ccccc2O1 (stereo not drawn) | active: 2.59 µM | 
50 | CCC(C)NCC(=O)Nc1ccc(-c2nc3cc(NC(=O)CNC(C)CC)ccc3o2)cc1 (stereo not drawn) | active: 6.51 µM | 
51 | COc1ccc(N/C=C(\C#N)c2nc3ccccc3n2C)c(OC)c1 | inconclusive: 23.1 µM [inhibitor, single point] | 
52 | CC(C)CC(=O)Nc1nnc(SCC(=O)Nc2ccc3c(c2)OCO3)s1 | inconclusive: 29.1 µM [inhibitor, single point] | 
53 | CCOc1ccc(N2CC(c3nc4ccccc4n3CCOc3ccccc3)CC2=O)cc1 (stereo not drawn) | inconclusive: 29.1 µM [inhibitor, single point] | 
54 | O=C(Oc1ccc2ccccc2c1Br)N1CCCCCC1 | inconclusive: 23.1 µM [inhibitor, single point] | 
55 | CCCCC(=O)Nc1ccc2oc(-c3cccnc3)nc2c1 | inactive | 
56 | Cc1ccccc1COn1nnc2ccc(S(=O)(=O)N3CCOCC3)cc21 | inconclusive: 29.1 µM [inhibitor, single point] | 
57 | Fc1ccc(CNC(=S)Nc2cccc(C(F)(F)F)c2)cc1 | inconclusive: 23.1 µM [inhibitor, single point] | 
58 | COc1cc(-c2noc(C)c2C#CCO)cc(OC)c1OC | inconclusive: 22.4 µM [inhibitor, single point] and inconclusive: 18.4 µM [inhibitor, single point] | 
59 | O=C(c1ccc(Br)o1)N1CCC(Cc2ccccc2)CC1 | inconclusive: 18.4 µM [inhibitor, partial curve] | 
60 | COc1ccc(N2CCN(C(=O)c3cccc(S(=O)(=O)N4CCc5ccccc54)c3)CC2)cc1 | inconclusive: 29.1 µM [inhibitor, single point] | 
61 | CCCCC1=CC2=C(c3ccco3)C(=O)C(C)(OC(=O)c3ccc(OC)cc3)C(=O)C2=CN1C1CC1 (stereo not drawn) | inconclusive: 16.4 µM [inhibitor, single point] | 
62 | O=C(Nc1cccc(-c2ccc(N3CCOCC3)nn2)c1)c1ccccc1Cl | inactive | 
63 | CCOc1cc(S(=O)(=O)NCc2ccncc2)c(C)cc1C | inactive | 
64 | CCc1nc(NCc2ccccn2)c2oc3ccccc3c2n1 | active: 14.6 µM | 
65 | COC(=O)c1cc(OC)c(OC)cc1NC(=O)C1CCC(=O)N1S(=O)(=O)c1ccc(C)cc1 (stereo not drawn) | active: 20.6 µM | 
66 | CC(=O)c1cccc(NC(=O)CSc2ccc(-c3ccco3)nn2)c1 | inconclusive: 29.1 µM [inhibitor, single point] | 
67 | Cc1cccc(NC(=S)N2CCC(N(C)CC3CCCO3)CC2)c1C (stereo not drawn) | inactive | 
68 | COc1cccc(NC(=O)Cn2c(=O)n(CCC(=O)NC3CCN(Cc4ccccc4)CC3)c(=O)c3ccccc32)c1 | inactive | 
